# Test results from PubChem BioAssay (NCATS).
# Values joined by “and” are separate entries in the source; they are usually repeats but may differ in a detail not shown here. Equal values may be shown once. This list was built around the results that the source calls inconclusive (neither active nor inactive); the mix of calls is not that of the screen. For some of these results: A potency beside an inconclusive call is a rough fit, not a confirmed value. For some of these results: “Side channel” marks fits to a control or component signal instead of the main read-out. Active and inactive are the calls of the source. Unless noted, calls come from the whole dose curve.
# Key:
# [1] = qHTS assay for small molecule activators of the p53 signaling pathway (AID 651743; active = well fitted activation curve with a large enough effect in the signal ratio, not every such curve was filed as active; inconclusive = small, poorly fitted or top-dose-only effect, or a change in a side signal; the % refers to the signal ratio; for activation: % of control where 0% means no effect); details: HCT-116 p53RE-bla, beta-lactamase FRET ratio, 16 h; activation: stronger effect = higher value
# Outline: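 Screen for p53 pathway agonists uses stably transfected p53RE-bla HCT-116 cells, 4,000 per well, treated 16 h at 37 C with compounds in DMSO.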
# [2] = molecular target: Tumor necrosis factor (Homo sapiens) (UniProt P01375); assay: qHTS assay to identify small molecules that stimulate Tumor Necrosis Factor-alpha (TNF-alpha) secretion (AID 651757; active = well fitted curve in the direction sought with a large enough effect in the signal ratio; inconclusive = small, poorly fitted or top-dose-only effect, or a change in a side signal; inactive = no such curve, though single readings can be large or run the other way; the % refers to the signal ratio; for activation (TNF-alpha secretion): 0% is about no effect); details: Human cells, HTRF 665/615 ratio; activation (TNF-alpha secretion): at 92.2 µM (top of the series)
# Outline: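 Secreted TNF-alpha from compound-treated THP-1 cells (17 hrs, 37 C) was quantified with a homogeneous time-resolved fluorescence antibody assay.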
# [3] = qHTS assay to identify small molecules that stimulate interleukin-8 (IL-8) secretion (AID 651758; active = well fitted activation curve with a large enough effect in the signal ratio; inconclusive = small, poorly fitted or top-dose-only effect, or effect the other way, or a change in a side signal; the % refers to the signal ratio; for activation: 0% is about no effect); details: HTRF ratio (665/615)
# Outline: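 Secreted IL-8 measured by TR-FRET sandwich (cryptate and XL665 antibodies) from THP-1 cells exposed to compound overnight (16 hrs, 37 C).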
# [4] = qHTS assay for small molecule agonists of the antioxidant response element (ARE) signaling pathway (AID 651741; active = well fitted activation curve with a large enough effect in the signal ratio; inconclusive = small, poorly fitted or top-dose-only effect, or effect the other way, or a change in a side signal; the % refers to the signal ratio; for activation: % of control where 0% means no effect); details: HepG2 ARE-bla reporter, beta-lactamase FRET ratio, 16 h; activation: at 96 µM (top of the series)
# Outline: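 Seeding 2,000 ARE-bla HepG2 cells per well preceded a 5 h incubation at 37 C/5% CO2 and a 16 h compound exposure at 37 C. Beta-lactamase reporter activity was then quantified by fluorescence after 2 h with LiveBLAzer B/G FRET substrate.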
# [5] = qHTS assay for small molecule activators of the nuclear factor-kappa B (NF-kB) signaling pathway (AID 651749; active = well fitted activation curve with a large enough effect in the signal ratio; inconclusive = small, poorly fitted or top-dose-only effect, or a change in a side signal; the % refers to the signal ratio; for activation: % of control where 0% means no effect); details: NF-kB-bla ME-180 cells, beta-lactamase FRET ratio, 16 h; activation: stronger effect = higher value
# Outline: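 Stably transfected ME-180 line; NF-kB response element upstream of beta-lactamase. Treatment: compound or DMSO, 16 hr. Detection: fluorescent FRET substrate.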
# [6] = qHTS assay for small molecule disruptors of the mitochondrial membrane potential - 1 hr assay (AID 651754); details: ratio change, negative = depolarisation: at 92.2 µM (top of the series); note: nearly all actives have a fitted effect of over 35% in size; for ratio change, negative = depolarisation: % is set by controls: 0 for no effect and ±100 for the full control effect
# Outline: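 Steps: seed HepG2 cells and let attach overnight; pin-transfer compound or vehicle; incubate 1 hr at 37C; add Mito-MPS dye for 30 min; read two-channel fluorescence for monomer and aggregate forms.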
# [7] = molecular target: Nuclear receptor ROR-gamma (Homo sapiens) (UniProt P51449); assay: qHTS assay for small molecule antagonists of the retinoid-related orphan receptor gamma (ROR-gamma) signaling pathway (AID 651802; active = well fitted curve in the direction sought with a large enough effect; inconclusive = small, poorly fitted or top-dose-only effect, or another doubt; inactive = no such curve, though single readings can be large; an effect the other way counts as inactive or inconclusive; note: nearly all actives have a fitted effect of over 60% in size)
# Outline: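 Antagonism is scored as a fall in luminescence from a RORE-luciferase reporter in CHO cells expressing ROR under a TET-inducible promoter, measured 16hr after doxycycline induction in the presence of compound.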
# [8] = qHTS assay for small molecule disruptors of the mitochondrial membrane potential - 5 hr assay (AID 651755); details: JC-1-type ratio dye; ratio change, negative = disruption: at 92.2 µM (top of the series); note: nearly all actives have a fitted effect of over 40% in size; for ratio change, negative = disruption: % is set by controls: 0 for no effect and ±100 for the full control effect
# Outline: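 HepG2, 2,000 cells/well, overnight attach; cpd or DMSO 5 hr, 37C/5% CO2; Mito-MPS 30 min 37C; fluor 490/535 + 540/590 nm.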
# [9] = qHTS for Inhibitors of WRN Helicase: Thiazole Orange DNA Binding Counterscreen (AID 720499; active = well fitted curve in the direction sought with a large enough effect; inconclusive = small, poorly fitted or top-dose-only effect, or another doubt; inactive = no such curve, though single readings can be large; an effect the other way counts as inactive or inconclusive;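 note: drop in dye fluorescence marks compound binding to DNA; nearly all actives have a fitted effect of over 60% in size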); details: thiazole orange DNA binding displacement, fluorescence
# Outline: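 After pintool transfer of compounds into a thiazole orange/DNA mixture (100 nM and 50 nM respectively) and 15 min at room temperature, plates were imaged for fluorescence at 530 nm emission, 480 nm excitation.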
# [10] = molecular target: Peroxisome proliferator-activated receptor alpha (Homo sapiens) (UniProt Q07869); assay: qHTS assay for small molecule agonists of the peroxisome proliferator-activated receptor alpha (PPARalpha) signaling pathway (AID 651778; active = well fitted curve in the direction sought with a large enough effect; inconclusive = small, poorly fitted or top-dose-only effect, or another doubt; inactive = no such curve, though single readings can be large; an effect the other way counts as inactive or inconclusive); details: PathHunter PPARalpha complementation, chemiluminescence, 6 h; max response: stronger effect = higher value
# Outline: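 Chemiluminescence from complemented enzyme reported PPARalpha activation in cells after 6 hr of compound treatment at 37 C. The detection reagent was incubated for 60 min at room temperature, and compounds were scored as agonists.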
# [11] = activation: at 92.2 µM (top of the series)
# Potency is the fitted concentration of half-maximal effect; tags give direction and shape of the fitted curve.
# Sequence of UniProt P51449 (P51449 whole entry, looked up): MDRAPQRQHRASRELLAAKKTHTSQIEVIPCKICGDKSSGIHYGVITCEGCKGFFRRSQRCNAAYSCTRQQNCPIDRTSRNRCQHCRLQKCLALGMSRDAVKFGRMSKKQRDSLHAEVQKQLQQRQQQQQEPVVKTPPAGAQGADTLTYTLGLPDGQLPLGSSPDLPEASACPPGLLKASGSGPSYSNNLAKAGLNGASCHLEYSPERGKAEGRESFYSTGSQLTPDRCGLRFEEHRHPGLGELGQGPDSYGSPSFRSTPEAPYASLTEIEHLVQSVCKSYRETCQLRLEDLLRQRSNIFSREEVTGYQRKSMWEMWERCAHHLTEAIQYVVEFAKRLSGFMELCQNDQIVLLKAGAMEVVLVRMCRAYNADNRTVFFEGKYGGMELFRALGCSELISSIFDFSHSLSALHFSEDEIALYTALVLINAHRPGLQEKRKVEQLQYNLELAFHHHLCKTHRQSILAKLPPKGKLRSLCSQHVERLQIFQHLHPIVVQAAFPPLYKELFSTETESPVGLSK
# Sequence of UniProt P01375 (P01375 whole entry, looked up): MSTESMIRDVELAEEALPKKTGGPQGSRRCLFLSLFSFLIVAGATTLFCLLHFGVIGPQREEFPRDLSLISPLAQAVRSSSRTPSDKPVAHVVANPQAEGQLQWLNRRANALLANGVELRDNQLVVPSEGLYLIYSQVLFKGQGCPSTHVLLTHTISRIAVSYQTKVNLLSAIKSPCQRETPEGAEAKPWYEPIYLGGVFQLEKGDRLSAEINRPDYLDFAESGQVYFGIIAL
# Sequence of UniProt Q07869 (Q07869 whole entry, looked up): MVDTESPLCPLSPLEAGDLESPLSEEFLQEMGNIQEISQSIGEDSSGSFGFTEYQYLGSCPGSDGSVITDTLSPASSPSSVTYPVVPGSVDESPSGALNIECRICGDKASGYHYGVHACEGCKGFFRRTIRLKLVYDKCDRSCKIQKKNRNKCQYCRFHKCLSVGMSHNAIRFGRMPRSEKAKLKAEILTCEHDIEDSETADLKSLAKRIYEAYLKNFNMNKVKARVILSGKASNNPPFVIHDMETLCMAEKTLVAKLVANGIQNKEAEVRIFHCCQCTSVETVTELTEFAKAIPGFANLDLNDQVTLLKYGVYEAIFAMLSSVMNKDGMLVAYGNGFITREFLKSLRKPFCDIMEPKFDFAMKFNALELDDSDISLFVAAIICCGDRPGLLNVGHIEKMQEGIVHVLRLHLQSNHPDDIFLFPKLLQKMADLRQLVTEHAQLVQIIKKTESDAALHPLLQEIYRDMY
structure (smiles),measurement,setting,value
O=C(O)CCCc1ccc(N(CCCl)CCCl)cc1,Potency,[1],active: 22.4 µM and active: 35.5 µM
same,activation (TNF-alpha secretion),[2],inconclusive: 1.01%
same,Potency,[3]; [11],"inconclusive: 75 µM [activator, single point]"
O=C(CCl)c1ccc(Cl)cc1Cl,Potency,[4],"inconclusive: 6.68 µM [cytotoxic, side channel, full curve, poor fit]"
same,Potency,[3]; [11],active: 3.76 µM
O=c1[nH]c2ccccc2n1C1CCN(CCCC(c2ccc(F)cc2)c2ccc(F)cc2)CC1,Potency,[1],"inconclusive: 70.8 µM [rising, single point]"
same,Potency,[5],"inconclusive: 35.5 µM [cytotoxic, side channel, partial curve]"
OCCCBr,Potency,[4],"inconclusive: 75 µM [activator, single point]"
same,activation,[3]; [11],inconclusive: 7.47%
CCCCOC(=O)c1ccccc1C(=O)OCc1ccccc1,Potency,[4],"inactive and inconclusive: 68.6 µM [activator, single point]"
same,Potency,[6],"inconclusive: 37.6 µM [inhibitor, partial curve]"
same,Potency,[3]; [11],inactive
O=C(O)C(Cl)(Cl)Cl,Potency,[4],"inconclusive: 75 µM [activator, partial curve, poor fit]"
same,activation,[3]; at 92.2 µM (top of the series),inactive: 12.7%
same,activation,[3]; [11],inconclusive: 5.72%
Oc1cc(Cl)ccc1Oc1ccc(Cl)cc1Cl,Potency,[1],"inconclusive: 79.4 µM [side channel, falling, single point]"
COC1=CC(=O)O[C@@H](/C=C/c2ccccc2)C1,Potency,[4],active: 5.31 µM
same,activation,[3]; [11],inconclusive: -18.1%
C1CCC(NC2CCCCC2)CC1,Potency,[4],"inactive and inconclusive: 66.8 µM [activator, partial curve, poor fit]"
same,activation,[3]; at 92.2 µM (top of the series),inactive: -3.78%
same,activation,[3]; [11],inconclusive: -10.4%
CC(C)(O)C(=O)Nc1ccc([N+](=O)[O-])c(C(F)(F)F)c1,Potency,[4],active: 66.8 µM
same,activation (TNF-alpha secretion),[2],inconclusive: 0.403%
same,activation,[3]; [11],inconclusive: 16.9%
same,Potency,[7],"inconclusive: 18.8 µM [inhibitor, full curve, poor fit]"
Oc1cc(Cl)c(Cl)cc1Cl,Potency,[4],active: 42.2 µM
same,Potency,[8],active: 47.3 µM
same,Potency,[2],"inconclusive: 75 µM [rising, partial curve, poor fit]"
same,activation,[3]; [11],inconclusive: 19.7%
COc1ccc(C(c2ccc(OC)cc2)C(Cl)(Cl)Cl)cc1,Potency,[1],"inconclusive: 0.005 µM [side channel, falling, full curve, poor fit]"
same,activation,[3]; at 92.2 µM (top of the series),inactive: -1.48%
same,activation,[3]; [11],inconclusive: 13%
same,Potency,[7],active: 26.6 µM
Nc1ccc(Sc2ccc(N)cc2)cc1,Potency,[4],"inconclusive: 37.6 µM [activator, partial curve] and inconclusive: 48.6 µM [activator, partial curve]"
same,activation (TNF-alpha secretion),[2],inconclusive: 0.0066%
same,activation,[3]; [11],inconclusive: 20.9%
O=CC=O,Potency,[4],"inconclusive: 75 µM [activator, partial curve, poor fit]"
same,Potency,[8],inactive
same,Potency,[3]; [11],"inconclusive: 84.1 µM [activator, partial curve, poor fit]"
same,Potency,[7],inactive
CN(C)[C@@H]1C(=O)C(C(N)=O)=C(O)[C@@]2(O)C(=O)C3=C(O)c4c(O)cccc4[C@@](C)(O)[C@H]3[C@H](O)[C@@H]12,Potency,[4],"inconclusive: 75 µM [activator, partial curve, poor fit] and inconclusive: 34.4 µM [activator, partial curve]"
same,"ratio change, negative = depolarisation",[6],inconclusive: 8.33%
same,Potency,[2],inactive
same,Potency,[3]; [11],"inconclusive: 66.8 µM [inhibitor, single point]"
same,Potency,[9],"inconclusive: 27.1 µM [inhibitor, partial curve]"
O=P1(N(CCCl)CCCl)NCCCO1 (centres undefined),Potency,[4],"inactive and inconclusive: 53.1 µM [activator, partial curve]"
same,activation,[3]; [11],inconclusive: -8.4%
Nc1ccccc1,Potency,[4],inactive
same,Potency,[3]; [11],inactive
CCCC(C)(COC(N)=O)COC(=O)NC(C)C (centres undefined),Potency,[4],inactive
same,Potency,[3]; [11],inactive
C[C@H]1C(=O)O[C@@H]2CCN3CC=C(COC(=O)[C@](C)(O)[C@]1(C)O)[C@H]23,Potency,[1],"inconclusive: 0.0316 µM [side channel, falling, full curve, poor fit]"
C=CCN=C=S,Potency,[4],inactive
same,Potency,[3]; [11],inactive
Nc1ccc(Cl)cc1,Potency,[4],"inconclusive: 42.2 µM [activator, partial curve]"
same,activation,[3]; [11],inconclusive: 12.9%
CCOCCOC(C)=O,activation,[1],inactive: -0.566%
same,activation,[3]; [11],inconclusive: 2.89%
Nc1ccc([N+](=O)[O-])cc1,Potency,[4],"inconclusive: 75 µM [activator, single point]"
same,Potency,[3]; [11],inactive
O=C1C2CC=CCC2C(=O)N1SC(Cl)(Cl)Cl (centres undefined),Potency,[1],"inconclusive: 31.6 µM [activator, single point]"
same,Potency,[5],"inconclusive: 31.6 µM [side channel, falling, partial curve] and inconclusive: 39.8 µM [side channel, falling, partial curve]"
same,Potency,[3]; [11],"inconclusive: 66.8 µM [inhibitor, single point] and inconclusive: 75 µM [inhibitor, single point]"
COP(=S)(OC)Oc1ccc(SC)c(C)c1,Potency,[4],"inconclusive: 61.1 µM [activator, partial curve]"
same,"ratio change, negative = depolarisation",[6],inconclusive: -30.3%
same,Potency,[3]; [11],inactive
CNC(=O)Oc1cccc2ccccc12,Potency,[1],"inconclusive: 1 µM [side channel, falling, full curve, poor fit]"
same,Potency,[6],"inconclusive: 47.3 µM [inhibitor, partial curve, poor fit]"
same,"ratio change, negative = disruption",[8],inconclusive: -30.4%
same,Potency,[3]; [11],inactive
O=C1CCO1,Potency,[4],"inconclusive: 53.1 µM [activator, partial curve]"
same,activation,[3]; [11],inconclusive: -29.6%
CNCC(O)c1ccc(O)cc1 (centres undefined),Potency,[4],inactive
same,Potency,[3]; [11],"inconclusive: 42.2 µM [activator, partial curve]"
CC[n+]1c(-c2ccccc2)c2cc(N)ccc2c2ccc(N)cc21,Potency,[1],active: 8.91 µM
same,Potency,[6],"inconclusive: 23.7 µM [inhibitor, partial curve]"
same,Potency,[8],active: 11.9 µM
same,Potency,[2],active: 37.6 µM
same,activation,[3]; [11],inconclusive: -26%
[O]=[Cr](=[O])([OH])[O][Cr](=[O])(=[O])[OH],Potency,[1],active: 22.4 µM and active: 15.8 µM and active: 7.94 µM
same,Potency,[8],inactive
same,Potency,[7],active: 33.5 µM and active: 16.8 µM
CCOP(=S)(OCC)O/N=C(\C#N)c1ccccc1,Potency,[1],"inconclusive: 79.4 µM [side channel, falling, single point]"
CC(C)Nc1ccc(Nc2ccccc2)cc1,Potency,[1],"inconclusive: 35.5 µM [activator, partial curve]"
same,Potency,[6],"inconclusive: 42.2 µM [inhibitor, partial curve]"
same,activation (TNF-alpha secretion),[2],inconclusive: 0.805%
same,Potency,[3]; [11],"inconclusive: 66.8 µM [inhibitor, single point]"
same,Potency,[7],"inconclusive: 59.6 µM [inhibitor, partial curve, poor fit]"
O=[N+]([O-])c1c(Cl)c(Cl)cc(Cl)c1Cl,Potency,[4],"inconclusive: 42.2 µM [activator, partial curve]"
same,Potency,[3]; [11],inactive
CCC(C)(C)c1ccc(O)cc1,Potency,[4],"inconclusive: 61.1 µM [activator, single point] and inactive"
same,Potency,[6],"inconclusive: 37.6 µM [inhibitor, partial curve]"
same,activation,[3]; [11],inconclusive: 25.8%
Cc1ccc(N=CN(C)C=Nc2ccc(C)cc2C)c(C)c1,Potency,[10],"inconclusive: 39.8 µM [activator, partial curve]"
Cc1cc(O)ccc1Cl,activation,[3]; [11],inconclusive: 12.3%
same,Potency,[7],"inconclusive: 21.1 µM [inhibitor, full curve, poor fit]"
NCCc1ccc(O)cc1,"ratio change, negative = depolarisation",[6],inconclusive: 14.4%
same,activation,[3]; [11],inconclusive: 17%
c1ccc2c(c1)Nc1ccccc1S2,Potency,[8],active: 66.8 µM
same,activation (TNF-alpha secretion),[2],inconclusive: 1.42%
same,Potency,[3]; [11],"inconclusive: 75 µM [rising, single point]"
CC1(C)C(C=C(Cl)Cl)C1C(=O)OC(C#N)c1cccc(Oc2ccccc2)c1 (centres undefined),activation,[5],inactive: 1.83%
[Cl-].[Cl-].[Hg+2],"ratio change, negative = depolarisation",[6],inconclusive: -22%
same,activation (TNF-alpha secretion),[2],inconclusive: 0.396%
same,Potency,[3]; [11],"inconclusive: 59.6 µM [inhibitor, single point]"
CN(C)NC(=O)CCC(=O)O,activation,[3]; [11],inconclusive: 18.3%
O=[N+]([O-])c1c2ccccc2cc2ccccc12,Potency,[6],active: 11.9 µM
same,Potency,[8],active: 29.8 µM
same,activation,[3]; [11],inconclusive: -16.2%
